This is one part of the list. The list includes weakly bound sequences.
Biological target: T1, MBP-FoxP3dN (UniProt Q99JB6)
T1 sequence: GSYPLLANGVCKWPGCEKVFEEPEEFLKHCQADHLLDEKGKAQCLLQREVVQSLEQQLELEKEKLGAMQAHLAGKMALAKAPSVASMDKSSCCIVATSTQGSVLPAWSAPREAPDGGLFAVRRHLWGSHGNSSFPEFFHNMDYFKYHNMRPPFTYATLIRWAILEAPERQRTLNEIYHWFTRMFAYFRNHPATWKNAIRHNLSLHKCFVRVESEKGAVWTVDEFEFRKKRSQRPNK
Experiment: PD-seq (MBP pull-down with sequencing)
Conditions: 20 mM Tris-HCl pH 7.5, 100 mM NaCl, 1.5 mM MgCl2, 0.4 uM protein, 0.1 uM dsDNA library, 30 min, room temperature, amylose pull-down; high values mean tight binding; double strand, one strand shown

| Sequence | binding signal (RPM ratio (pull-down/input)) |
| --- | --- |
| GATGATTGTTCTCCCAGCTGATGAATTTCTCCGGTCGAGTAAACAAATTTTCCTAATCTTTCTGTTCAAGCGCCATCTAC | 0.153 |
| GATGATTGTTCTCCCAGCTGATGAATTTAGGGACTCGAGTAAACAAATTTTCCTAATCTTTCTGTTCAAGCGCCATCTAC | 0.524 |
| GATGATTGTTCTCCCAGCTGATGAATTATTCATCTCGAGTAAACAAATTTTCCTAATCTTTCTGTTCAAGCGCCATCTAC | 0.399 |
| GATGATTGTTCTCCCAGCTGATGAATTAGCGAAGTCGAGTAAACAAATTTTCCTAATCTTTCTGTTCAAGCGCCATCTAC | 0.227 |
| GATGATTGTTCTCCCAGCTGATGAATTAACATTATCGAGTAAACAAATTTTCCTAATCTTTCTGTTCAAGCGCCATCTAC | 0.644 |
| GATGATTGTTCTCCCAGCTGATGAATTTTCCTACTCGAGTAAACAAATTTTCCTAATCTTTCTGTTCAAGCGCCATCTAC | 0.244 |
| GATGATTGTTCTCCCAGCTGATGAATTACTGTGTTCGAGTAAACAAATTTTCCTAATCTTTCTGTTCAAGCGCCATCTAC | 0.701 |
| GATGATTGTTCTCCCAGCTGATGAATTGGGTGGATCGAGTAAACAAATTTTCCTAATCTTTCTGTTCAAGCGCCATCTAC | 0.423 |
| GATGATTGTTCTCCCAGCTGATGAATTTTATATGTCGAGTAAACAAATTTTCCTAATCTTTCTGTTCAAGCGCCATCTAC | 1.35 |
| GATGATTGTTCTCCCAGCTGATGAATTGCCGAGCTCGAGTAAACAAATTTTCCTAATCTTTCTGTTCAAGCGCCATCTAC | 0.36 |
| GATGATTGTTCTCCCAGCTGATGAATTTGAGATTTCGAGTAAACAAATTTTCCTAATCTTTCTGTTCAAGCGCCATCTAC | 0.531 |
| GATGATTGTTCTCCCAGCTGATGAATTCCCGTCCTCGAGTAAACAAATTTTCCTAATCTTTCTGTTCAAGCGCCATCTAC | 0.283 |
| GATGATTGTTCTCCCAGCTGATGAATTAATGAGCTCGAGTAAACAAATTTTCCTAATCTTTCTGTTCAAGCGCCATCTAC | 0.416 |
| GATGATTGTTCTCCCAGCTGATGAATTCTCCTTCTCGAGTAAACAAATTTTCCTAATCTTTCTGTTCAAGCGCCATCTAC | 0.284 |
| GATGATTGTTCTCCCAGCTGATGAATTGCATCTGTCGAGTAAACAAATTTTCCTAATCTTTCTGTTCAAGCGCCATCTAC | 3.85 |
| GATGATTGTTCTCCCAGCTGATGAATTGCTCGTTTCGAGTAAACAAATTTTCCTAATCTTTCTGTTCAAGCGCCATCTAC | 0.594 |

| Sequence | binding signal (RPM ratio (pull-down/input)) |
| --- | --- |
| GATGATTGTTCTCCCAGCTGATGAATTTGAGGAGTCGAGTAAACAAATTTTCCTAATCTTTCTGTTCAAGCGCCATCTAC | 0.291 |
| GATGATTGTTCTCCCAGCTGATGAATTAATAAGGTCGAGTAAACAAATTTTCCTAATCTTTCTGTTCAAGCGCCATCTAC | 0.275 |
| GATGATTGTTCTCCCAGCTGATGAATTCGATGAGTCGAGTAAACAAATTTTCCTAATCTTTCTGTTCAAGCGCCATCTAC | 0.641 |
| GATGATTGTTCTCCCAGCTGATGAATTCCAAAAATCGAGTAAACAAATTTTCCTAATCTTTCTGTTCAAGCGCCATCTAC | 0.174 |
| GATGATTGTTCTCCCAGCTGATGAATTACCGCAGTCGAGTAAACAAATTTTCCTAATCTTTCTGTTCAAGCGCCATCTAC | 0.486 |
| GATGATTGTTCTCCCAGCTGATGAATTGCGAGAGTCGAGTAAACAAATTTTCCTAATCTTTCTGTTCAAGCGCCATCTAC | 0.493 |
| GATGATTGTTCTCCCAGCTGATGAATTTTGCTGGTCGAGTAAACAAATTTTCCTAATCTTTCTGTTCAAGCGCCATCTAC | 1.93 |
| GATGATTGTTCTCCCAGCTGATGAATTGGTGTTATCGAGTAAACAAATTTTCCTAATCTTTCTGTTCAAGCGCCATCTAC | 2.04 |
| GATGATTGTTCTCCCAGCTGATGAATTCGGTTTGTCGAGTAAACAAATTTTCCTAATCTTTCTGTTCAAGCGCCATCTAC | 3.22 |
| GATGATTGTTCTCCCAGCTGATGAATTTTCATTCTCGAGTAAACAAATTTTCCTAATCTTTCTGTTCAAGCGCCATCTAC | 0.385 |
| GATGATTGTTCTCCCAGCTGATGAATTCAGTATCTCGAGTAAACAAATTTTCCTAATCTTTCTGTTCAAGCGCCATCTAC | 3.25 |
| GATGATTGTTCTCCCAGCTGATGAATTAGGGGCCTCGAGTAAACAAATTTTCCTAATCTTTCTGTTCAAGCGCCATCTAC | 0.504 |
| GATGATTGTTCTCCCAGCTGATGAATTGGCAGATTCGAGTAAACAAATTTTCCTAATCTTTCTGTTCAAGCGCCATCTAC | 0.278 |
| GATGATTGTTCTCCCAGCTGATGAATTGGGTTGTTCGAGTAAACAAATTTTCCTAATCTTTCTGTTCAAGCGCCATCTAC | 2.43 |
| GATGATTGTTCTCCCAGCTGATGAATTCTAGCGTTCGAGTAAACAAATTTTCCTAATCTTTCTGTTCAAGCGCCATCTAC | 1.13 |

Source: article PMC12820563
